Whole data set: some 110,000 compounds, median “z-score” near -0.1, cut for the highest 2% near 2. The list shows a part of the results.
Each compound was assayed against Metabotropic glutamate receptor 8 (Rattus norvegicus) (UniProt P70579) (assay: mGluR8 Gi/Go-coupled signaling modulation – cell-based, rat, thallium flux, HTS, primary screen (AID 488969)). Settings: HEK293 rat mGluR8, GIRK (G protein-gated inwardly rectifying potassium channel) thallium flux, FluoZin2; at 10 µM; stronger effect = higher value; submaximal glutamate (EC20) added with thallium.
UniProt P70579, sequence (P70579 whole entry, looked up): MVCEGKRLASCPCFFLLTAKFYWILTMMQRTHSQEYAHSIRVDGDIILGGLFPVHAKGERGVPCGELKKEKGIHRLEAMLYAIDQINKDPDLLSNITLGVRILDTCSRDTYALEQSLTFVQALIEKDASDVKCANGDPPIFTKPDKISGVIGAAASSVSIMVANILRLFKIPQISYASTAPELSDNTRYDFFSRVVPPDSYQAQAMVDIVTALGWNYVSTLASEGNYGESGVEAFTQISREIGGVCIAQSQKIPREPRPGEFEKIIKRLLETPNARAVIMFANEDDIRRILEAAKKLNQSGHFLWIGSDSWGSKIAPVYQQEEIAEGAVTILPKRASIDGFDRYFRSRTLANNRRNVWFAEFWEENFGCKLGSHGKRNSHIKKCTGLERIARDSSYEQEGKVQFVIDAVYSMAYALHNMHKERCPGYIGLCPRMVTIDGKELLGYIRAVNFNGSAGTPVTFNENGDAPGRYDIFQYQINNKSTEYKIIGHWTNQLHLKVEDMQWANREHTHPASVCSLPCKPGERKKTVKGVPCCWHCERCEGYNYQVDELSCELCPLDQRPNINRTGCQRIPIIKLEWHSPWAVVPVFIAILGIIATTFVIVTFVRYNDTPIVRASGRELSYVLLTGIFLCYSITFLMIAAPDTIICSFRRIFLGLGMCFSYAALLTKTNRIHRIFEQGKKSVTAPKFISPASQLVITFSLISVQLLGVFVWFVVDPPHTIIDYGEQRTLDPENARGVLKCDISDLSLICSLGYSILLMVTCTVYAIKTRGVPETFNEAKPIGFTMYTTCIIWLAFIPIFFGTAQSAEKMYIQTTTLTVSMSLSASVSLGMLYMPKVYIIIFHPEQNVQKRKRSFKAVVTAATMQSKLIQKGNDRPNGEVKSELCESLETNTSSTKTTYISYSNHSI
Compound `Cc1ccc(S(=O)(=O)Nc2ccc(N=Nc3ccc(O)cc3)cc2)cc1` has a z-score of 0.492.
In the case of `O=C(Nc1cccc(S(=O)(=O)N2CCCCC2)c1)Nc1ccc(Cl)cc1Cl`, the z-score is reported as -0.0698.
Work on `O=C(CC(=O)Nc1cccc(Cl)c1)N/N=C\c1ccccc1` yielded a z-score of -0.327.
`Cc1cc(NCCNC2=CC(=O)CCC2)nc2ccccc12` gave a z-score of -0.308.
Compound `Cc1ccc(C(=O)NNc2cc(N3CCCC3)nc(N3CCCC3)n2)cc1` has a z-score of -0.127.
With `O=C(/C=C/c1ccccc1)N/C(=C/c1ccccc1)C(=O)N1CCOCC1` the z-score was 0.604.
`Cc1ccc(NC(=S)N2CCN(c3ncccn3)CC2)c(C)c1` was tested, and the z-score was -0.247.
For `CCOC(=O)CC(=O)CSc1nc2ccccc2c(=O)n1-c1ccc(C(=O)N2CCOCC2)cc1`, the z-score was -0.0436.
Compound `CC1CN(C(=O)c2cc3cc(Cl)cc(Cl)c3oc2=O)CC(C)O1` (stereo not given) has a z-score of -0.241.
Compound `COc1ccc(-c2nc3ncccn3c2Nc2ccc3c(c2)OCCO3)cc1` has a z-score of 0.678.
Work on `CCCC(=O)Nc1nc2ccc(S(N)(=O)=O)cc2s1` yielded a z-score of -0.295.
`CCOC(=O)c1ccc(NC(=O)C2CCN(S(=O)(=O)CC)CC2)cc1` gave a z-score of -0.119.
With `O=C(NCCc1ccccc1)C(=O)N/N=C/c1ccc2c(c1)OCO2` the z-score was -0.266.
`C/C(N)=C(/C#N)C(=O)COc1ncnc2ccc(Br)cc12` was tested, and the z-score was -0.153.
With `CCC(C)Nc1ncnc2c1cnn2Cc1ccc(Cl)cc1` (stereo not given) the z-score was -0.932.
In the case of `Cc1nn(C)c(C)c1-c1c(C#N)c(N)nc2c1CCCCCC2`, the z-score is reported as 0.0105.
For `CNC(=S)N/N=C/c1ccc(OCC(=O)Nc2c(C)cc(C)cc2C)c(OC)c1`, the z-score was -0.178.
In the case of `COCCn1c(=O)[nH]c2cc(C(=O)NCCCN3CCN(c4ccc(F)cc4)CC3)ccc2c1=O`, the z-score is reported as -0.00724.
`COc1cccc(OC)c1Oc1ccc(C(F)(F)F)cn1` showed a z-score of 0.214.
`COC(=O)c1sc(NC(=O)CC(C)C)c(C(=O)OC)c1C` showed a z-score of -0.184.
In the case of `CSc1nc2c(c(=O)[nH]1)CCCC2`, the z-score is reported as -0.193.
With `Cc1ccc(C(=O)Oc2ccccc2N2C(=O)C3C4CCC(C4)C3C2=O)cc1` (stereo not given) the z-score was -0.333.
`COc1ccc(C2N=C(c3ccccc3)C(C)(C)N2O)cc1` (stereo not given) showed a z-score of 0.252.
`Cc1ccc(-n2c(O)c(C=Nc3ccc4c(c3)OCO4)c3ccccc3c2=O)cc1C` showed a z-score of 0.194.
Compound `O=C(Cc1cccc2ccccc12)N/N=C/C=C/c1cccc([N+](=O)[O-])c1` has a z-score of -0.527.
Compound `COc1ccccc1NC(=O)N1CCc2[nH]c3ccc(Cl)cc3c2C1` has a z-score of -0.0668.
In the case of `CC12CCC(C(=O)NCc3ccc(Cl)cc3)(OC1=O)C2(C)C` (stereo not given), the z-score is reported as -0.0643.
Compound `O=S(=O)(c1ccc(-c2cn3ccccc3n2)cc1)N1CCOCC1` has a z-score of -0.0851.
`CCOC(=O)c1ccc(NC(=O)N2CCN(C3CCCCC3)CC2)cc1` showed a z-score of -0.163.
With `COC(=O)CN(c1ccc(OC)c(OC)c1)S(C)(=O)=O` the z-score was 0.165.
With `CCOC(=O)c1[nH]c2ccc(C)cc2c1NC(=O)CN1CCCCC1` the z-score was -1.17.
Compound `Cn1c(NCc2cc(Br)ccc2O)nc2ccccc21` has a z-score of -0.597.
`Nc1nnc(SCC(=O)Nc2ccc(F)c(Cl)c2)n1-c1ccccc1` showed a z-score of -0.565.
`CCCC(C)NC(=O)COC(=O)c1ccc(Cl)c(S(N)(=O)=O)c1` (stereo not given) was tested, and the z-score was -0.328.
Compound `O=C1OCCC1Sc1nnc(-c2ccccc2)o1` (stereo not given) has a z-score of -0.134.
`CCCCN1C(=O)C2NN=C(C(=O)OC)C2C1=O` (stereo not given) gave a z-score of -0.112.
Work on `COc1cc(C(=O)N/N=C(\C)Cn2nc([N+](=O)[O-])cc2C)ccc1O` yielded a z-score of 0.363.
In the case of `Cc1ccc(-c2nnc(SCc3nc4ccccc4[nH]3)n2Cc2ccco2)cc1`, the z-score is reported as -0.115.
`Cc1ccc(C(=O)COC(=O)c2ccccc2NC(=O)c2ccccc2)cc1[N+](=O)[O-]` showed a z-score of 0.0743.
Compound `Cc1ccc(C2=N/C(=C/c3cccs3)C(=O)N2Nc2ccccc2)cc1` has a z-score of 0.175.
`O=C(Nc1ccc2c(c1)OCCO2)c1ccc(S(=O)(=O)N2CCCCC2)cc1` showed a z-score of -0.269.
In the case of `CCOC(=O)N1CCC(NC(=O)C2CCN(C(=O)N3CCOc4ccccc43)CC2)CC1`, the z-score is reported as -0.151.
Compound `O=C(CCSc1nc(-c2ccco2)cc(C(F)(F)F)n1)N1CCN(c2ccccn2)CC1` has a z-score of -0.717.
`CCN(CC)CCNc1c2c(c(C#N)c3nc4ccccc4n13)CCCC2` was tested, and the z-score was -0.313.
`Cc1cc([N+](=O)[O-])c(C(C)(C)C)cc1N` showed a z-score of 1.32.
`Cc1cc2ncn(C(=O)c3c(-c4ccccc4Cl)noc3C)c2cc1C` was tested, and the z-score was 1.09.
Compound `COc1ccc(OCC(=O)Nc2ccc(S(=O)(=O)N3CCOCC3)cc2)cc1` has a z-score of -0.0887.
`Cc1cc(NC(=O)CCC(=O)N(c2ccccc2)C(C(=O)NC2CCCC2)c2ccccc2)no1` (stereo not given) was tested, and the z-score was -0.167.
`Cc1nc2ccc(S(=O)(=O)NCC(=O)N3CCN(c4ccccc4)CC3)cc2s1` was tested, and the z-score was -0.417.
In the case of `O=C(CCN1CCN(c2ccc(Cl)cc2)CC1)Nc1nccs1`, the z-score is reported as -1.68.
`O=C(Cc1c(O)c2ccccc2[nH]c1=O)NCc1ccc(F)cc1` showed a z-score of -0.0894.
`CCc1ccc(C2N(c3ccc(OC)cc3)C(=O)C3CCCN32)cc1` (stereo not given) was tested, and the z-score was -0.173.
`CCN(CC)C(=O)C(Cc1ccccc1)N1C(=O)c2ccccc2C1=O` (stereo not given) was tested, and the z-score was -0.101.
`CC1=C(C(=O)Nc2ccccc2)C(c2sccc2C)n2nnnc2N1` (stereo not given) gave a z-score of -0.812.
`C/C(=N\N=C(N)N)c1ccc(Cl)cc1` gave a z-score of 0.836.

— PubChem BioAssay AID488969 (Vanderbilt High Throughput Screening Facility, 2010)
